Reference: US8263596B2, “Kinase inhibitors and method of treating cancer” (University Health Network, priority 2010, dated 2012)

Tests used:
Type in all cases: cell-based
[1] = test system: HCC1954 basal breast cancer cell line; conditions: Homo sapiens, read-out: Cell Line GI50 Range HCC-1954
[2] = test system: MDA-MB-468 basal breast cancer cell line; conditions: Homo sapiens, read-out: Cell Line GI50 Range MDA-MB-468
[3] = test system: MCF-7 luminal breast cancer cell line; conditions: Homo sapiens, MCF7, 120 h, read-out: Cell Line GI50 Range MCF-7
[4] = test system: SW620 colon cancer cells; conditions: Homo sapiens, 120 h; SW-620 colon cancer cell line; SRB assay after 5 days culture; read-out: Cell Line GI50 Range SW-620
[5] = test system: A549 lung cancer cells; conditions: Homo sapiens, 120 h; A549 lung cancer cell line; SRB assay after 5 days culture; read-out: Cell Line GI50 Range A-549
[6] = HCC1954, 120 h, HCC1954 basal breast cancer cell line, SRB assay after 5 days culture
[7] = 120 h, MDA-MB-468 basal breast cancer cell line, SRB assay after 5 days culture
[8] = MCF-7 luminal breast cancer cell line, SRB assay after 5 days culture
[9] = 120 h, HCC1954 basal breast cancer cell line, SRB assay after 5 days culture

Structure (SMILES)	GI50 [1, 6] [µM]	GI50 [4] [µM]	GI50 [2, 7] [µM]	GI50 [5] [µM]	GI50 [3, 8] [µM]	GI50 [1, 9] [µM]	GI50 ([1]; HCC1954, 120 h) [µM]	GI50 ([2]; MDA-MB-468, 120 h) [µM]	GI50 [3] [µM]
O=C1Nc2ccccc2[C@]12CC2c1ccc2cn[nH]c2c1 (mixture of isomers) [Example A2, (1R*,2S*)-2-(1H-indazol-6-yl)spiro[cyclopropane-1,3′-indolin]-2′-one]							> 10	> 10	> 10
COc1ccc2c(c1)[C@]1(CC1c1ccc3c(-c4ccc(N5CCN(C)CC5)nc4)n[nH]c3c1)C(=O)N2 (mixture of isomers) [Example A14, (1R*,2S*)-5′-Methoxy-2-(3-(6-(4-methylpiperazin-1-yl)pyridin-3-yl)-1H-indazol-6-yl)spiro[cyclopropane-1,3′-indolin]-2′-one dihydrochloride]							1 to 10	< 0.1	< 0.1
CN(C)Cc1ccc(/C=C/c2n[nH]c3cc(C4C[C@@]45C(=O)Nc4ccccc45)ccc23)cc1 (mixture of isomers) [Example A26, (1R*,2R*)-(E)-2-(3-(4-((dimethylamino)methyl)styryl)-1H-indazol-6-yl)spiro[cyclopropane-1,3′-indolin]-2′-one 2,2,2-trifluoroacetate]							1 to 10		
COc1ccc2c(c1)[C@]1(C[C@H]1c1ccc3c(-c4ccc(N5CCN(C)CC5)cc4)n[nH]c3c1)C(=O)N2 (relative stereo) [Example A38, (1R*,2S*)-5′-Methoxy-2-(3-(4-(4-methylpiperazin-1-yl)phenyl)-1H-indazol-6-yl)spiro[cyclopropane-1,3′-indolin]-2′-one]							> 10		0.1 to 1
O=C1Nc2ccccc2[C@]12C[C@H]2c1ccc2c(/C=C/c3ccc(CN4CCCCC4)nc3)n[nH]c2c1 (relative stereo) [Example A63, (1R*,2S*)-(E)-2-(3-((E)-2-(6-(piperidin-1-ylmethyl)pyridin-3-yl)vinyl)-1H-indazol-6-yl)spiro[cyclopropane-1,3′-indolin]-2′-one 2,2,2-trifluoroacetate salt]							1 to 10		
CCN1CCN(c2ccc(-c3n[nH]c4cc([C@@H]5C[C@@]56C(=O)Nc5ccc(OC)cc56)ccc34)cc2)CC1 (relative stereo) [Example A98, (1R*,2S*)-2-(3-(4-(4-ethylpiperazin-1-yl)phenyl)-1H-indazol-6-yl)-5′-methoxyspiro[cyclopropane-1,3′-indolin]-2′-one 2,2,2-trifluoroacetate]							> 10		0.1 to 1
COc1ccc2c(c1)[C@]1(C[C@H]1c1ccc3c(-c4ccc(N5CCC(O)CC5)nc4)n[nH]c3c1)C(=O)N2 (relative stereo) [Example A117, (1R*,2S*)-2-(3-(6-(4-hydroxypiperidin-1-yl)pyridin-3-yl)-1H-indazol-6-yl)-5′-methoxyspiro[cyclopropane-1,3′-indolin]-2′-one 2,2,2-trifluoroacetate]							> 10	0.1 to 1	1 to 10
COc1ccc2c(c1)[C@]1(C[C@H]1c1ccc3c(-c4ccc(C5CCNCC5)cc4)n[nH]c3c1)C(=O)N2 (relative stereo) [Example A122, (1R*,2S*)-5′-methoxy-2-(3-(4-(piperidin-4-yl)phenyl)-1H-indazol-6-yl)spiro[cyclopropane-1,3′-indolin]-2′-one 2,2,2-trifluoroacetate]							0.1 to 1	< 0.1	< 0.1
Cc1ccc2c(c1)[C@]1(C[C@H]1c1ccc3c(/C=C/c4ccc(CN(C)C)cc4)n[nH]c3c1)C(=O)N2 (relative stereo) [Example A169, (1R*,2S*)-(E)-2-(3-(4-((dimethylamino)methyl)styryl)-1H-indazol-6-yl)-5′-methylspiro[cyclopropane-1,3′-indolin]-2′-one 2,2,2-trifluoroacetate]							1 to 10	< 0.1	< 0.1
CN1C(=O)[C@@]2(C[C@H]2c2ccc3c(/C=C/c4ccc(N5CCNCC5)cc4)n[nH]c3c2)c2ccccc21 [Example A90, (1R,2S)-(E)-1′-methyl-2-(3-(4-(piperazin-1-yl)styryl)-1H-indazol-6-yl)spiro[cyclopropane-1,3′-indolin]-2′-one hydrochloride]							0.1 to 1	< 0.1	< 0.1
COc1ccc2c(c1)[C@]1(C[C@H]1c1ccc3c(/C=C/c4ccc(CN5CCOCC5)s4)n[nH]c3c1)C(=O)N2 [Example A105, (1R,2S)-5′-methoxy-2-(3-((E)-2-(5-(morpholinomethyl)thiophen-2-yl)vinyl)-1H-indazol-6-yl)spiro[cyclopropane-1,3′-indolin]-2′-one hydrochloride]							< 0.1	< 0.1	< 0.1
O=C1Nc2ccccc2[C@]12C[C@H]2c1ccc2c(/C=C/c3ccc(CCN4CCOCC4)cc3)n[nH]c2c1 [Example A205, (1R,2S)-(E)-2-(3-(4-(2-morpholinoethyl)styryl)-1H-indazol-6-yl)spiro[cyclopropane-1,3′-indolin]-2′-one 2,2,2-trifluoroacetate]							0.1 to 1	< 0.1	0.1 to 1

Now from value to compound, other results behind:

GI50 [1, 6] [µM]	GI50 [4] [µM]	GI50 [2, 7] [µM]	GI50 [5] [µM]	GI50 [3, 8] [µM]	GI50 [1, 9] [µM]	Structure (SMILES)	GI50 ([1]; HCC1954, 120 h) [µM]	GI50 ([2]; MDA-MB-468, 120 h) [µM]	GI50 [3] [µM]
1 to 10	1 to 10	0.1 to 1	1 to 10	1 to 10		O=C1Nc2ncc(Br)cc2[C@]12CC2c1ccc2c(/C=C/c3cccnc3)n[nH]c2c1 (mixture of isomers) [Example A27, (1R*,2S*)-5′-bromo-2-(3-((E)-2-(pyridin-3-yl)vinyl)-1H-indazol-6-yl)spiro[cyclopropane-1,3′-pyrrolo[2,3-b]pyridin]-2′(1′H)-one]			
	1 to 10	1 to 10	1 to 10	> 10	> 10	CN1CCN(c2ccc(-c3n[nH]c4cc(C5C[C@@]56C(=O)Nc5ccc(N)cc56)ccc34)cc2)CC1 (mixture of isomers) [Example A86, (1R*,2S*)-5′-amino-2-(3-(4-(4-methylpiperazin-1-yl)phenyl)-1H-indazol-6-yl)spiro[cyclopropane-1,3′-indolin]-2′-one]			
	> 10	1 to 10	> 10	1 to 10	> 10	NS(=O)(=O)c1cccc(-c2n[nH]c3cc(C4C[C@@]45C(=O)Nc4ccccc45)ccc23)c1 (mixture of isomers) [Example A130, 3-(6-((1R*,2S*)-2′-oxospiro[cyclopropane-1,3′-indoline]-2-yl)-1H-indazol-3-yl)benzenesulfonamide]			
	> 10	1 to 10	> 10	1 to 10	> 10	COc1ccc2c(c1)[C@]1(CC1c1ccc3c(-c4cccc(C(=O)N5CCN(C)CC5)c4)n[nH]c3c1)C(=O)N2 (mixture of isomers) [Example A149, (1R*,2S*)-5′-methoxy-2-(3-(3-(4-methylpiperazine-1-carbonyl)phenyl)-1H-indazol-6-yl)spiro[cyclopropane-1,3′-indolin]-2′-one 2,2,2-trifluoroacetate]			
> 10	1 to 10	0.1 to 1	0.1 to 1	0.1 to 1		COc1ccc2c(c1)[C@]1(CC1c1ccc3c(-c4ccc(CCN5CCOCC5)cc4)n[nH]c3c1)C(=O)N2 (mixture of isomers) [Example A159, (1R*,2S*)-5′-methoxy-2-(3-(4-(2-morpholinoethyl)phenyl)-1H-indazol-6-yl)spiro[cyclopropane-1,3′-indolin]-2′-one 2,2,2-trifluoroacetate]			
				1 to 10	1 to 10	CN1C(=O)[C@@]2(C[C@H]2c2ccc3c(/C=C/c4ccc(CN5CCCCC5)cc4)n[nH]c3c2)c2ccccc21 (relative stereo) [Example A95, (1R*,2S*)-(E)-1′-methyl-2-(3-(4-(piperidin-1-ylmethyl)styryl)-1H-indazol-6-yl)spiro[cyclopropane-1,3′-indolin]-2′-one 2,2,2-trifluoroacetate]			
	< 0.1	0.1 to 1	< 0.1	0.1 to 1	1 to 10	COc1ccc2c(c1)[C@]1(C[C@H]1c1ccc3c(-c4ccc(N5CCN(C)CC5)cc4)n[nH]c3c1)C(=O)N2C (relative stereo) [Example A100, (1R*,2S*)-5′-methoxy-1′-methyl-2-(3-(4-(4-methylpiperazin-1-yl)phenyl)-1H-indazol-6-yl)spiro[cyclopropane-1,3′-indolin]-2′-one 2,2,2-trifluoroacetate]			
	1 to 10	0.1 to 1	1 to 10	1 to 10	> 10	COc1ccc2c(c1)[C@]1(C[C@H]1c1ccc3c(-c4ccc(N5CCC(O)CC5)cc4)n[nH]c3c1)C(=O)N2 (relative stereo) [Example A118, (1R*,2S*)-2-(3-(4-(4-hydroxypiperidin-1-yl)phenyl)-1H-indazol-6-yl)-5′-methoxyspiro[cyclopropane-1,3′-indolin]-2′-one 2,2,2-trifluoroacetate]			
				< 0.1		COc1ccc2c(c1)[C@]1(C[C@H]1c1ccc3c(/C=C/c4ccc(N5CCN(C)CC5)cc4)n[nH]c3c1)C(=O)N2 (relative stereo) [Example A174, (1R*,2S*)-(E)-5′-methoxy-2-(3-(4-(4-methylpiperazin-1-yl)styryl)-1H-indazol-6-yl)spiro[cyclopropane-1,3′-indolin]-2′-one 2,2,2-trifluoroacetate]			

Counter-ions that a name gives are not always drawn. Like-named read-outs stand apart in the source and are kept apart here.
